# Source: publication PMC4336329 (PLoS ONE, 2015)
# Hit rate of the full screen: of about 310,000 compounds, about 14,000 (4.5%) showed an effect of 50% or more. Effects have a minus sign here. This is one part of the list.
# Target: human ether-à-go-go-related gene (hERG) potassium channel (human, UniProt Q12809)
# Assay: primary screen, population patch clamp on CHO cells stably expressing hERG
# 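Also: peak tail current of the secondary pulse compared with the same well before compound.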
# Sequence of human ether-à-go-go-related gene (hERG) potassium channel (Q12809 whole entry, looked up): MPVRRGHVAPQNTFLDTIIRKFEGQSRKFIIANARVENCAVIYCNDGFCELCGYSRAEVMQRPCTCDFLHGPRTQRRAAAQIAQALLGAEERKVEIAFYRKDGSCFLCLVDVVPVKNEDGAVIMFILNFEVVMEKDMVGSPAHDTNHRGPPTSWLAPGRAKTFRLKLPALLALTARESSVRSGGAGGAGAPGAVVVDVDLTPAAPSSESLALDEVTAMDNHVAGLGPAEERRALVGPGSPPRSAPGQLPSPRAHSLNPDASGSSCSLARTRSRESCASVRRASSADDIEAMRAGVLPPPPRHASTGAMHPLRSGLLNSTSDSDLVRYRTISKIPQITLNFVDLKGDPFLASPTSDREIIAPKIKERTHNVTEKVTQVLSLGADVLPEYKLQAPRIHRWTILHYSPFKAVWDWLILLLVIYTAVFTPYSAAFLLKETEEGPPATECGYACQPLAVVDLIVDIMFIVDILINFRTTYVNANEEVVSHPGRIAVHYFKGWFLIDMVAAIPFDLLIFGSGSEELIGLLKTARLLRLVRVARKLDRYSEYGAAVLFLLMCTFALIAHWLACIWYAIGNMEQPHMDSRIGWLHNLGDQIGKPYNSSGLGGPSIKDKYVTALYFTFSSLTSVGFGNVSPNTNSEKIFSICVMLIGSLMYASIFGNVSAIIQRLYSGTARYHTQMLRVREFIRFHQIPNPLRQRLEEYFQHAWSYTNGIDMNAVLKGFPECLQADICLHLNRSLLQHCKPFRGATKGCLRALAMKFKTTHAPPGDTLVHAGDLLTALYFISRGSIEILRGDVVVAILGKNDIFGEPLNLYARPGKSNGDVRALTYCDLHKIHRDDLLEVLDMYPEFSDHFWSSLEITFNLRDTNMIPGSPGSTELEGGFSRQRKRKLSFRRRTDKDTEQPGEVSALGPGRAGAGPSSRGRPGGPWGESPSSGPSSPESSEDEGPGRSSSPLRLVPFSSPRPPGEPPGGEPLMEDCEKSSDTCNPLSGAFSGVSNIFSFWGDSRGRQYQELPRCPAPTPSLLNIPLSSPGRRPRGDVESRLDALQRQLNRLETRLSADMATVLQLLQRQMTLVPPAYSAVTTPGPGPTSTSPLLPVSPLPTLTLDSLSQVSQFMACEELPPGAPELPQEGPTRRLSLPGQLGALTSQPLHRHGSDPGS
row,Compound,"hERG current change (%, negative = inhibition) at 10uM [%]"
1,CCn1nnc(NC(=O)Cc2ccc(Cl)cc2)n1,3.52
2,O=S(=O)(c1ccccc1)c1nc(-c2ccco2)oc1NCc1ccco1,5.67
3,CCCCn1c(SCC(=O)Nc2nnc(C)s2)nnc1-c1ccncc1,26.2
4,CCn1c(SC(C)C(=O)Nc2ccc(N3CCOCC3)cc2)nnc1C1CC1 (centres unmarked),-6.01
5,CCS(=O)(=O)n1nc(-c2ccco2)nc1SC,10.6
6,O=C(COc1ccc(Br)cc1)Nc1ccncc1,1.17
7,COC(=O)c1cn(C(=O)c2ccc(OC)c(OC)c2)c2ccccc12,-5.12
8,N/C(=N\OS(=O)(=O)c1ccc(Cl)cc1)c1cccnc1,2.35
9,COc1cccc(N2CC(NC(=O)C(=O)c3c(C)[nH]c4ccccc34)CC2=O)c1 (centres unmarked),13.2
10,COc1ccc(N2CCN(C(=O)COCc3cc(-c4ccc5c(c4)OCO5)on3)CC2)cc1,2.67
11,Cc1ccc(NC(=O)CSc2n[nH]c(N)n2)cc1S(=O)(=O)N1CCOCC1,-1.98
12,O=C(O)CCC(=O)N1CCC(C(=O)c2cccc(Cl)c2)CC1,21.4
13,COc1ccccc1C(=O)N=C1NC(=O)CC2C(=O)NCCN12 (centres unmarked),3.2
14,COc1cc(/C=N/Nc2ncc(C(F)(F)F)cc2Cl)cc(OC)c1O,-64.8
15,CS(=O)(=O)c1ccc(-c2csc(-c3cccnc3)n2)cc1,-30.1
16,Cc1cccc(C)c1OCC(=O)Nc1ccccc1N1CCCCC1,12.7
17,COc1ccc(NC(=O)Cc2ccsc2)cc1S(=O)(=O)N1CCCCC1,-25.8
18,CCCn1c(SCC(=O)Nc2cc(Cl)ccc2Cl)n[nH]c1=O,5.11
19,COc1ccccc1-c1cc(C(F)(F)F)nc(S(=O)(=O)CCCC(=O)NCc2ccc(F)cc2)n1,-34.7
20,O=c1[nH]cc(S(=O)(=O)N2CCCc3ccccc32)c(=O)[nH]1,-8.39
21,CCOc1ccc2c(c1)c(C(C)=O)c(C)n2-c1ccccc1,-19.4
22,Cc1nnc(NC(=O)C2CC(=O)N(c3ccc4c(c3)OCCO4)C2)s1 (centres unmarked),-1.13

row,Compound,"hERG current change (%, negative = inhibition) at 10uM [%]"
1,CCc1c(C)nc2cc(-c3cccc(Br)c3)[nH]n2c1=O,-3.6
2,COc1cc(-c2noc(C)c2C#Cc2nccn2C)cc(OC)c1OC,-53.4
3,Cc1ccc(S(=O)(=O)NNC(=O)c2ccc(NC(=O)C3CC3)cc2)cc1,11.6
4,Cc1ccc(NC2CCCN(C(=O)CCN3CCOCC3)C2)cc1C (centres unmarked),16.1
5,CCc1ccc(NCCC(=O)c2ccc(Cl)cc2)cc1,10.2
6,FC(F)(F)c1cc(-c2ccccc2)nc(N2CCCCC2)n1,19.1
7,O=C(CCCc1c[nH]c2ccccc12)NCC1COc2ccccc2O1 (centres unmarked),3.31
8,C/C(=N\N=C(/N)SC1CC(=O)N(c2ccc(Cl)cc2)C1=O)c1cccs1 (centres unmarked),2.58
9,CCn1nc2cc(C(=O)NCc3cc(C(F)(F)F)cc(C(F)(F)F)c3)ccc2c1OC,12.9
10,COc1ccc(CCNC(=O)Cn2cnc3c(nnn3Cc3ccc(C)cc3)c2=O)cc1OC,15.4
11,Cc1cc(OC(F)F)ccc1NC(=S)NCCc1ccccc1,-3.61
12,CC(C)Cc1cc(C(=O)N2CCC(N3CCC(C(=O)N4CCOCC4)CC3)CC2)n[nH]1,-18.6
13,COc1cccc(CNc2ncc(C(=O)Nc3cc(OC)c(OC)c(OC)c3)c(C)n2)c1,14
14,COc1ccc2oc(C(=O)OCC(=O)Nc3cc(S(=O)(=O)N4CCOCC4)ccc3C)c(C)c2c1,11.6
15,O=C(c1ccc(F)cc1)C1CCN(C(=O)N2CCOCC2)CC1,-7.19
16,O=C(O)c1ccccc1-c1nc2cc(Cl)ccc2c(=O)n1O,26.2
17,CC(C)OC(=O)NCCOC(=O)Nc1cccc(Cl)c1,9.33
18,COc1ccc(CC(=O)N/N=C(\C)c2ccc(Br)s2)cc1,14.5
19,COc1cc2cc3c(N)c(C(=O)NCc4ccco4)sc3nc2cc1OC,-25.5
20,CCN1CCN(C(c2ccccc2)c2nnnn2Cc2ccc(OC)cc2)CC1.Cl (centres unmarked),10.7
21,CCCn1c(SCC(=O)O)nc2ccccc21,3.15
22,O=C(c1ccccc1NS(=O)(=O)c1ccccc1)N1CCCCCC1,16.3
